The values below come from PubChem BioAssay AID1346428 (National Center for Advancing Translational Sciences (NCATS), 2018).

Several values for one entry are separate records, joined by “and”; a condition that tells them apart may be missing. Identical values can stand only once. Out of some 48,000 compounds screened, about 1,200 (2.5%) were called active. Not shown: some 2% with an inconclusive outcome.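 How the source made its calls: active means activation of at least 60% and not above a set upper limit (about 1 call in 100 departs from these limits); inconclusive means activation of 40% to 60%, or above that upper limit; inactive means activation under 40%.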 The list shows a part of the results.

The target of this assay is Probable G-protein coupled receptor 32 (Homo sapiens) (UniProt O75388). Put plainly: qHTS for Agonists of Human Resolvin D1 Receptor DRV1. Further: 0% is about no effect. Particulars: CHO-K1 GPR32 beta-arrestin PathHunter luminescence, 90 min; at 76.9 µM; hits give high values; zero percent set by DMSO-only wells. In a few lines: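 Step 1: seed CHO-K1 GPR32 beta-arrestin cells, 2,500/well, overnight at 37 °C. Step 2: add compounds, 90 min at 37 °C. Step 3: detection reagent, 1 h ambient, then luminescence.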
Sequence of UniProt O75388 (O75388 whole entry, looked up): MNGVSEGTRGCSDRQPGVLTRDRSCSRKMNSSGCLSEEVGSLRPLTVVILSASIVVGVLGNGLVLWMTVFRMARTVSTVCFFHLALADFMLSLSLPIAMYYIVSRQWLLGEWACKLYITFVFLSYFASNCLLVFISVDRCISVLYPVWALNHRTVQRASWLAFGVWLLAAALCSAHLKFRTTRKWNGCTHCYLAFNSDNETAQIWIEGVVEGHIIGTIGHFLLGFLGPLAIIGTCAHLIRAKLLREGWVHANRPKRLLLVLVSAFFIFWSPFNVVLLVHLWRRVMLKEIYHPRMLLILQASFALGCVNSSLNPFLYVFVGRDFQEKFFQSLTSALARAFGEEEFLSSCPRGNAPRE
(qHTS replaces the single test concentration by a dilution series.)
As for `CCOc1ccccc1C(=O)Nc1nnc(COC)s1`, the activation was inactive: -13.8%.
For `O=C(NCc1ccc2c(c1)CCN2C(=O)c1ccccc1)c1ccc(Br)o1` the value was inactive: 1.64%; for `Cc1ccc(NS(=O)(=O)c2ccc3c(c2)NC(=O)CCS3)cc1F`, inactive: 19.8%.
For `Cn1c(=O)c2c(ncn2C)n(C)c1=O` the value was inactive: -10.7% and inactive: 10.4%; for `Cc1cn(C)c(CC(=O)N2CCN(c3ccc(F)cc3)CC2)c1C(=O)O`, inactive: -5.89%; for `COC(=O)c1ccccc1NC(=O)Cn1nc(C(F)(F)F)c2c1CCCC2`, inactive: -28.9%.
For `CCN(C(=O)Cn1cc(C(=O)c2ccc(F)cc2)c(=O)c2ccc(C)nc21)c1cccc(C)c1` the value was inactive: -17.8%.
Regarding `CC1CCCCN1c1nc(-c2ccc(C(C)(C)C)cc2)nc2ccccc12` (centres undefined), the activation was inactive: -22.6%.
For `COc1cc(NC(=O)Cn2c(=O)nc(-c3ccccc3F)c3cc(Cl)ccc32)cc(OC)c1` the value was inactive: 0.293%; for `Cc1ccc(C)c(N2CCN(C(=O)Cn3c(C)c4cnn(-c5ccccc5)c(=O)c4c3C)CC2)c1`, inactive: 1.75%.
In the case of `CCOC(=O)c1cc(OC(=O)c2cccc(Cl)c2)n(-c2ccccc2)n1`, the activation was inactive: 8.5%.
For `CCOc1ccc(C(=O)N2CCC(c3ccncc3)CC2)cc1`, the activation was inactive: 16.5%.
Next, `COc1cccc(-n2c(-c3ccc(C)cc3)cc3c2CC(C)(C)CC3=O)c1`: inactive: -24.8%; `CCCCOc1ccc(CNC(=O)c2cnc3sc(N4CCC(C)CC4)nn3c2=O)cc1`: inactive: -9.64%.
For `CC(C)c1nc2ccc(C(=O)NCCCN3CCN(c4ccc(F)cc4)CC3)cc2o1` the value was inactive: -15.1%; for `CCC1CN(C(=O)N2CCC(C(=O)NCc3ccco3)CC2)c2cc(C)ccc2O1` (centres undefined), inactive: -6.21%.
Next, `COc1ccc(OC)c(NC(=O)CCc2c(C)nc3c(c(C)nn3C(C)(C)C)c2C)c1`: inactive: -3.67%; `CC(C)c1ccc2occ(CC(=O)Nc3cccc(C(F)(F)F)c3)c2c1`: inactive: 35.4%.
For the molecule `Cc1ccc2c(c1)CC(C)N2S(=O)(=O)c1nnc(NC(=O)CC(C)C)s1` (centres undefined), the activation is inactive: -21.6%.
Turning to `Cc1cc(C)c2c(CC(=O)Nc3c(C(=O)c4ccc(F)cc4)oc4ccccc34)coc2c1`, the activation is inactive: 3.17%.
Next, `CC(CNC(=O)Cn1c(-c2cccs2)cc2cc(Cl)ccc21)c1ccccc1` (centres undefined): inactive: -8.38%; `COc1cc(Cl)c(C)cc1NC(=O)CCn1cnc2onc(-c3ccc(F)cc3)c2c1=O`: inactive: 0.909%.
Regarding `COCC(C)NS(=O)(=O)c1ccc(N2CCCCS2(=O)=O)cc1` (centres undefined), the activation was inactive: 4%.
Next, `CCN1C(C(=O)c2ccccc2)=C(NC(=O)c2ccc(Cl)cc2)c2ccccc2S1(=O)=O`: inactive: -11.6%.
As for `CCOC(=O)c1ccc(NC(=O)c2sc3nc4n(c(=O)c3c2C)CCC4)cc1`, the activation is inactive: -4.28%.
For `CCOc1ccc(NC(=O)Cn2c(=O)n(CC(=O)NCCc3ccccc3)c(=O)c3sccc32)cc1`, the activation was inactive: -9.87%.
For `Cc1ccc(C)c(S(=O)(=O)c2cn(Cc3ccccc3)c3cc(N4CCCC4)c(F)cc3c2=O)c1` the value was inactive: -17.9%; for `Cc1ccc2c(CC(=O)Nc3c(C(=O)c4ccc(F)cc4)oc4ccccc34)coc2c1C`, inactive: -18.3%.
Consider `CC(C)c1ccc(NC(=O)C(Cc2ccccc2)n2cccc2)cc1` (centres undefined), for which the activation is inactive: -11.3%.
Take `COc1cccc(C(=O)NCCc2sc(-c3cccc(C)c3)nc2C)c1`: the activation was inactive: 19.6%.
Next, `Cc1cccc(C)c1NC(=O)c1cc(S(=O)(=O)N2CCCc3ccccc32)ccc1F`: inactive: -12.1%.
Regarding `CC(=O)N1CCCc2cc(S(=O)(=O)Nc3ccc(OC(F)(F)F)cc3)ccc21`, the activation was inactive: -14.5%.
For `Cc1ccc(-n2ccn(CC(=O)c3ccc(F)cc3)c(=O)c2=O)cc1C` the value was inactive: -12.5%; for `Cc1ccc(-n2[nH]c(C)c(N=Nc3cccc(-c4cccc(C(=O)O)c4)c3O)c2=O)cc1C`, inactive: 29.6%; for `COc1cccc(NC(=O)c2oc3ccccc3c2NC(=O)c2ccc(OC(C)C)cc2)c1`, inactive: -26.3%.
Next, `CC(=O)Nc1nonc1-c1nnc(SCC(=O)Nc2c(C)cccc2C)n1-c1ccccc1`: inactive: -9.77%; `CCn1cc(C(=O)NCc2ccc(Cl)cc2)c(=O)c2cc(S(=O)(=O)N3CCc4ccccc4C3)ccc21`: inactive: 32.6%.
For `CCOC(=O)c1ccc(N2C(=O)c3[nH]nc(-c4ccccc4)c3C2c2ccc(C(C)C)cc2)cc1` (centres undefined), the activation is inactive: -14.6%.
For `COc1ccc2c(CNCCc3ccco3)c(C(=O)O)n(Cc3ccc(F)cc3)c2c1` the value was inactive: 33.4%; for `Cc1ccc2c(c1)c1c(c(=O)n(-c3ccccc3C)c(=O)n1Cc1cccc(F)c1)n2C`, inactive: -5.65%.
On to `Cc1ccc(Cl)cc1NC(=O)C(NS(=O)(=O)c1ccc2c(c1)CCC(=O)N2)c1ccccc1` (centres undefined), for which the activation is inactive: -6.74%.
For `CC(C)(C)C(=O)Nc1ccc2nc(SCc3ccccc3)sc2c1` the value was active: 120%; for `CC1=C(c2ccc(F)cc2)S(=O)(=O)NC1=NCc1ccccc1Cl`, inactive: -9.46%.
Next, `Cc1cccc(NC(=O)CC2C(=O)OCCN2Cc2ccccc2)c1` (centres undefined): inactive: 19.3%.
`CCc1ccc(NCc2cc3cc(OC)c(OC)cc3n(CC(=O)Nc3ccc(F)cc3)c2=O)cc1`: the activation was inactive: -50.7%.
Take `CCC(=O)N1CCc2cc(S(=O)(=O)NC(Cc3ccccc3)C(=O)NCc3cccc(OC)c3)ccc21` (centres undefined): the activation was inactive: -0.715%.
As to `COc1ccc(-c2cn3nc(N4CCCC(C(=O)NCCCOC(C)C)C4)sc3n2)cc1` (centres undefined), the activation is inactive: -13.2%.
Regarding `COc1ccc2cc(CNc3ccccc3)c(=O)n(CC(=O)Nc3ccc(C(C)=O)cc3)c2c1`, the activation is inactive: -16.8%.
As to `Cc1ccccc1C(=O)NC(=O)Nc1ccc(-n2nc(C(F)(F)F)cc2C(F)(F)F)cc1`, the activation was inactive: 17.9%.
For `COc1cccc(CNC(=O)CCn2c(=O)c3cccn3c3cccnc32)c1`, the activation is inactive: -9.75%.
Next, `CCCN(CCC)c1cc(C)nc2nc(-c3ccc(Cl)cc3)nn12`: inactive: -17.7%.
Next, `Cc1ccc(C(=O)CSc2nc(-c3ccccc3)nc3c2CCCC3)cc1C`: inactive: -5.01%; `Cc1cc(Oc2nc3ccccn3c(=O)c2/C=C(\C#N)c2nc3ccccc3s2)ccc1Cl`: inactive: 8%.
As for `COc1ccc(-c2csc3ncnc(Nc4cccc(F)c4)c23)cc1`, the activation was inactive: -4%.
Next, `CC(=O)c1ccc(NC(=O)CC2Sc3ccccc3NC2=O)cc1` (centres undefined): inactive: 30.5%.
Consider `CC1=C(C(=O)Nc2ccc(C)cc2C)C(c2cccs2)n2nc(SCc3ccc(Cl)cc3)nc2N1` (centres undefined), for which the activation was inactive: -5.18%.
Next, `Cc1ccc(Nc2nc(C(N)=O)c(NC(=O)c3ccccc3Br)s2)cc1`: active: 60.9%.
Regarding `Cc1ccc(NC(=O)C2CCN(C(=O)c3cnn(-c4ccccc4)c3-n3cccc3)CC2)cc1Cl`, the activation is inactive: -15.4%.
For `Cc1nc2nc(NC(=O)C(C)C)[nH]n2c(=O)c1Cc1ccccc1` the value was inactive: 14.3%; for `Cc1ccc(CSc2nc3cccnc3n2Cc2ccc(C(=O)NCc3cccs3)cc2)cc1`, inactive: 1.42%; for `CCOCCCNC(=O)CN1C(=O)COc2ccc(S(=O)(=O)N3CCOCC3)cc21`, inactive: -1.67%.
For `COc1ccc(-c2cc(C(F)(F)F)nc(SCCC(=O)Nc3ccc(F)cc3F)n2)cc1` the value was inactive: -0.954%.
As for `CC(=O)O[C@H]1Cc2ccccc2N(C(N)=O)c2ccccc21`, the activation was inactive: -8.76%.
On to `CC(=O)c1ccc(NC(=O)CSc2nnc3c(n2)[nH]c2ccccc23)cc1`, for which the activation is inactive: 1.21%.
`COc1ccc(CNC(=O)c2cc(-c3ccc(OC)c(OC)c3)nc3n[nH]c(-c4ccc(C)cc4)c23)cc1`: the activation is inactive: -16.2%.
Next, `O=C(Nc1ccc(F)cc1F)c1ccc(-n2cnc3cccnc32)cc1`: inactive: 1.56%.
For `O=C(CSc1ccc2nc(-c3ccccc3)cn2n1)Nc1ccccc1` the value was inactive: -0.757%; for `COc1ccc(N(C)C(=O)c2oc(=O)c3ccccc3c2-c2ccc(C)cc2)c(OC)c1`, inactive: -12.8%; for `N#Cc1c(-n2ncnc2-c2ccccc2Cl)sc2c1CCCCC2`, inactive: 4.7%.
Regarding `CCOC(=O)c1ccc(O)cc1`, the activation was inactive: -1.26%.
For the molecule `COc1ccc(N2CCN(C(=O)CCCCn3c(=O)[nH]c4ccsc4c3=O)CC2)cc1`, the activation was inactive: 49.3%.
Turning to `CCOC(=O)c1ccc(N2C(=O)c3n[nH]c(-c4cccs4)c3C2c2cccc(O)c2)cc1` (centres undefined), the activation is inactive: 24%.
As for `Clc1ccc(-c2nc3ncccn3c2Nc2ccc3c(c2)OCCO3)cc1`, the activation is inactive: 7.1%.
For `O=C(CCC1N=C2c3ccccc3N=C(SCc3ccc(F)cc3)N2C1=O)N1CCN(c2ccccc2)CC1` (centres undefined) the value was inactive: -21.9%.
Next, `CCOC(=O)C1CCN(C(c2ccc(C)cc2)c2sc3nc(-c4ccco4)nn3c2O)CC1` (centres undefined): inactive: 4.99%; `CCOc1ccc(/C=C(\C#N)C(=O)Nc2sc3c(c2C(=O)OC)CCC3)cc1OC`: inactive: 3.47%.
Next, `Cc1ccc(CNC(=O)CCc2c(C)c3cc4c(C)coc4cc3oc2=O)cc1`: inactive: 9.55%; `COC(=O)c1c(SCC(=O)Nc2ccccc2C(F)(F)F)[nH]c2ccc(Cl)cc2c1=O`: inactive: 33.1%.
Consider `CC(C)c1ccc(CNC(=O)c2ccc(N3CCCC3)c(NC(=O)NCc3ccc(F)cc3)c2)cc1`, for which the activation is inactive: -20.2%.
For `CC1=C(C(=O)Nc2cccc(F)c2)C2(CCCCC2)OC1=O` the value was inactive: -14%.
For `Cc1cccc(Nc2cc(C)nc3nc(-c4ccccc4)nn23)c1` the value was inactive: 17.2%; for `COc1ccc2nc(N3CCN(C(=O)CS(=O)(=O)c4ccc(C)cc4)CC3)sc2c1`, inactive: 36%.
For `COc1ccc(OC)c(N(C)S(=O)(=O)c2ccc3c(c2)NC(=O)CC(=O)N3)c1`, the activation was inactive: 6.24%.
Next, `COc1ccc(C)cc1NC1(c2ccccc2)C(=O)c2ccccc2C1=O`: inactive: -21.9%.
